In PubChem BioAssay AID504333 (National Center for Advancing Translational Sciences (NCATS), 2011):
Several values for one entry are separate records, joined by “and”; a condition that tells them apart may be missing. Identical values can stand only once. The whole screen tested about 360,000 compounds, of which about 16,000 (4.4%) were called active. The inconclusive results got no clear call from the source; some entries with a clear call stand among them for comparison. The call rests on the fitted dose curve; in most records, active means well fitted inhibition curve with a large enough effect; inconclusive means small, poorly fitted or top-dose-only effect; inactive means no such curve, though single readings can be large or run the other way. Potencies beside an inconclusive call are fits to weak or partial responses and may not hold up.

Target: Bromodomain adjacent to zinc finger domain protein 2B (Homo sapiens) (UniProt Q9UIF8)
Experiment: qHTS Assay for Inhibitors of BAZ2B; further: nearly all actives have a fitted effect of over 60% in size
Conditions: AlphaScreen BAZ2B-H3K14Ac peptide displacement; series mostly up to 114 µM
Outline: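 BAZ2B (50 nM) with biotin-H3(5-23)K14Ac peptide (50 nM) in PBS pH 7.4, 0.01% Tween-20, preformed 30 min, then compound 30 min at room temperature; top concentration 110uM. AlphaScreen streptavidin donor/nickel chelate acceptor beads (10 ug/mL final), 20 min dark, signal read.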
Potency means the concentration at half of the fitted maximal effect; tags describe the fitted curve by direction and shape.

UniProt Q9UIF8, sequence (Q9UIF8 whole entry, looked up, the tested form may be a part): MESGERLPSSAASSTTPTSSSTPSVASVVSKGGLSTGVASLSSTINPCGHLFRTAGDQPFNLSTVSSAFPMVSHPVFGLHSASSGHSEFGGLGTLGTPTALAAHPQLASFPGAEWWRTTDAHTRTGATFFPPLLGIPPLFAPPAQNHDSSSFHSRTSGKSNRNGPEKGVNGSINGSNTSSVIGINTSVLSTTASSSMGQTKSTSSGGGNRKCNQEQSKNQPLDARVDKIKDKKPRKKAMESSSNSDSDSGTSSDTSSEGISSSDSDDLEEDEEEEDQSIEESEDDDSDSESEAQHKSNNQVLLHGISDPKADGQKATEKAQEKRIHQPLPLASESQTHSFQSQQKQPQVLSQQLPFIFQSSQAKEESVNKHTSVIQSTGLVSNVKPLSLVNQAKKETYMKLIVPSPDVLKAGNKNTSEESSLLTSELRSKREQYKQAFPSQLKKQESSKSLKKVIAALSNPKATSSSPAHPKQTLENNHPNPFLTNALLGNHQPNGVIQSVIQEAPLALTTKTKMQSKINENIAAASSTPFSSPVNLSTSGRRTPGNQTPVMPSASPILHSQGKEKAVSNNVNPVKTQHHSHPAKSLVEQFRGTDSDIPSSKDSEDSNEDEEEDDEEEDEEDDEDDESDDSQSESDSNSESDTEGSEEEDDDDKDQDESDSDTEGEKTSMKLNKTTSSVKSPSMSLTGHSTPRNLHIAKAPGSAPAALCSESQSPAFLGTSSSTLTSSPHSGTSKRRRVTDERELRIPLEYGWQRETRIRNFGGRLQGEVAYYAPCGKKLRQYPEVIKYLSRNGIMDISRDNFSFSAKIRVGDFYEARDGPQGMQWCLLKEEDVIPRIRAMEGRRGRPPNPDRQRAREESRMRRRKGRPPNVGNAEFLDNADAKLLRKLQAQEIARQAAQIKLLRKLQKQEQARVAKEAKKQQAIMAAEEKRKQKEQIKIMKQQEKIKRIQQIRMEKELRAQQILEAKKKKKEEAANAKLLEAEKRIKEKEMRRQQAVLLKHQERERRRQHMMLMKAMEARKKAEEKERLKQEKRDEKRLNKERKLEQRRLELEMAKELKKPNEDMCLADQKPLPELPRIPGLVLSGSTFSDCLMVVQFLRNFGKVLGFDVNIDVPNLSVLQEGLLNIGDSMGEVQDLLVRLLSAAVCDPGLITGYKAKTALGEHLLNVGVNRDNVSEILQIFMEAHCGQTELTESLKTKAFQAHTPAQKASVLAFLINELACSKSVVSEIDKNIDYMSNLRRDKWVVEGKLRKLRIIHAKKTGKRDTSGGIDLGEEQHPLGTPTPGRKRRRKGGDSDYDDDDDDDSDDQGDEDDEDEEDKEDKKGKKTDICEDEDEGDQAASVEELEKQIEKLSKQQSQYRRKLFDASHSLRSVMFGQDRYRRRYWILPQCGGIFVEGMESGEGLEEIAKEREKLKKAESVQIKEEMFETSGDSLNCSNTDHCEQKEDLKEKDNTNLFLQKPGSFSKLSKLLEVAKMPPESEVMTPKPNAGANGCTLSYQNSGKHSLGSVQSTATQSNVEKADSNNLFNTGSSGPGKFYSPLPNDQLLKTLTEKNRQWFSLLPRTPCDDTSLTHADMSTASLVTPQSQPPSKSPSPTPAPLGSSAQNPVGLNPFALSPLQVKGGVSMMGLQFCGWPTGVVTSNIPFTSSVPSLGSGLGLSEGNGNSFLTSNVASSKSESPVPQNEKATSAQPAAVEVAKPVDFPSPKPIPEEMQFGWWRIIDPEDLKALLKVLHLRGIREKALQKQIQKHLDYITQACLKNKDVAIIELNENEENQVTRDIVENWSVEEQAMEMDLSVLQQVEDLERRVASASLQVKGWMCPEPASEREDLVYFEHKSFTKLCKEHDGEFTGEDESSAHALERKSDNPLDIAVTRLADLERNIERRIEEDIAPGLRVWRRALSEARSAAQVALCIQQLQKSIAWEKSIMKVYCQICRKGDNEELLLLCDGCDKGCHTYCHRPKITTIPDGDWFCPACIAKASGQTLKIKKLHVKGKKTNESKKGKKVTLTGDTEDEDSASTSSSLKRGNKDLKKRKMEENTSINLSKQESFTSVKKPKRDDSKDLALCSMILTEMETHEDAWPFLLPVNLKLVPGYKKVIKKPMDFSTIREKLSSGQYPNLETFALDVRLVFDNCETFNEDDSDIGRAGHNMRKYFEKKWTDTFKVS

Compound	Potency
O=C(COC(=O)Cc1ccc(S(=O)(=O)N2CCOCC2)s1)Nc1ccc([N+](=O)[O-])cc1	inconclusive: 79.4 µM [inhibitor, single point]
OC(COc1ccc2ccccc2c1)Cn1ccnc1 (stereo not drawn)	inconclusive: 50.1 µM [inhibitor, partial curve]
Cc1ccc(C)c(N2CCN(C(=O)c3cc4sccc4n3C)CC2)c1	inconclusive: 22.4 µM [inhibitor, single point]
Nc1c(N)c2ccccc2oc1=O	inconclusive: 89.1 µM [inhibitor, single point]
CCOc1ccc(CCNC(=O)CCn2c(=O)c3cccn3c3cccnc32)cc1	inconclusive: 89.1 µM [inhibitor, single point]
Cc1cc(C)c(-n2c(C)cc(/C=C3/NC(=O)NC3=O)c2C)c(C)c1	active: 50.1 µM
CCOc1ccc(S(=O)(=O)n2nc(C)c(S(=O)(=O)N3CCOCC3)c2C)cc1	inconclusive: 89.1 µM [inhibitor, single point]
CCCOc1ccc(-c2cc(C(F)(F)F)c(C#N)c(SCC(=O)O)n2)cc1	inactive
Cc1ccc(S(=O)(=O)Nc2cc(C(C(=O)OC(C)C)C(=O)C(F)(F)F)c(O)c3ccccc23)c(C)c1 (stereo not drawn)	inconclusive: 44.7 µM [inhibitor, partial curve]
CC(C)Oc1ccc(C(=O)Nc2ccc(-c3nc4ccccc4s3)cc2)cc1	inconclusive: 17.8 µM [inhibitor, partial curve, poor fit]
CC(C)N(Cc1nc(-c2ccccc2)no1)C(=O)c1ccc(Br)o1	inconclusive: 79.4 µM [inhibitor, single point]
CCOc1ccc(CN(C(=O)/C=C/c2ccco2)C2CCS(=O)(=O)C2)cc1 (stereo not drawn)	inconclusive: 70.8 µM [inhibitor, single point]
Cc1cccc(Nc2nc(N)c([N+](=O)[O-])c(NCc3ccccc3)n2)c1	inconclusive: 22.4 µM [inhibitor, full curve]
CCOC(=O)c1c(C)[nH]c(C)c1S(=O)(=O)N1CCN(c2ccc([N+](=O)[O-])cc2)CC1	inconclusive: 39.8 µM [inhibitor, partial curve]
CCOC(=O)c1c(NC(=O)Cc2ccccc2)sc2c1CCN(CC)C2	inactive
CC(=O)c1c[nH]c(C(=O)Nc2ccc(N3CCCCCC3)cc2)c1	active: 35.5 µM
COc1ccc2nc(N=NC3=C(O)CC(C)(C)CC3=O)sc2c1	active: 39.8 µM
COc1ccc(OC)c(S(=O)(=O)N2CCN(c3ccccc3)CC2)c1	inactive
CCCCC[n+]1ccn(-c2nc3ccccc3nc2[N-]S(=O)(=O)c2ccccc2)c1	active: 20 µM
O=C(COc1ccccc1)Nc1ccc2nc(SCC(=O)N3CCc4ccccc43)sc2c1	inconclusive: 89.1 µM [inhibitor, single point]
CC(C)=CC(=O)N1CCCC(N2CCN(c3ccc(F)cc3)CC2)C1 (stereo not drawn)	inactive
Cc1ccc(CNC(=O)Cn2cnc3cc([N+](=O)[O-])ccc3c2=O)cc1	inactive

Compound	Potency
Clc1cccc(N2CCN(c3c4c(nc5nncn35)CCC4)CC2)c1	inconclusive: 89.1 µM [inhibitor, single point]
COc1ccccc1N1CCN(c2ccc([N+](=O)[O-])cn2)CC1	inconclusive: 89.1 µM [inhibitor, single point]
CCOc1cc(/C=N/Nc2nnc(C)n2N)ccc1OC(C)=O	inactive
O=C(Nc1nnc(S(=O)(=O)N2CCCCCC2)s1)c1cccc(Br)c1	inconclusive: 10 µM [inhibitor, full curve]
COc1ccc2c(c1)C(c1cccs1)=NNC(c1ccncc1)=N2	inconclusive: 12.6 µM [inhibitor, full curve, poor fit]
O=C(NCc1ccc2c(c1)OCO2)C1CCN(c2ccc(S(=O)(=O)N3CCCC3)cc2)CC1	inactive
CSCC[C@H](NC(=O)c1ccc(Cl)c(S(=O)(=O)N2CCCC2)c1)c1nc2ccccc2[nH]1	inconclusive: 50.1 µM [inhibitor, partial curve]
CCOc1ccc(Nc2ncnc3c2nc2n3CCCCC2)cc1	inactive
Cc1ccccc1C(=O)/C(C#N)=N/Nc1c(C)n(C)n(-c2ccccc2)c1=O	active: 50.1 µM
O=C(CSc1ncccc1C(=O)O)c1ccc2ccccc2c1	inconclusive: 100 µM [inhibitor, single point]
Cc1nc(NC(=O)/C=C/c2ccccc2)sc1C(=O)Nc1ccccc1Cl	inconclusive: 89.1 µM [inhibitor, single point]
N=C1/C(=C/c2ccc(Br)o2)C(=O)N=C2SC(CC(=O)N3CCCC3)=NN12	active: 50.1 µM
Clc1ccc(Cl)c(OCCCCN2CCNCC2)c1	inconclusive: 89.1 µM [inhibitor, single point]
Cc1ccc(N2C(=O)C3C4C=CC(CC4)C3C2=O)c([N+](=O)[O-])c1 (stereo not drawn)	inactive
CCc1nn(CCCC(=O)N2CCN(c3ccc(OC)cc3)CC2)c(=O)c2cc3occc3n12	inconclusive: 79.4 µM [inhibitor, partial curve] and inconclusive: 56.2 µM [inhibitor, partial curve]
CCCCNc1c(-c2ccc(-c3ccc(C(C)=O)cc3)c(OC)c2)nc2cnccn12	inconclusive: 79.4 µM [inhibitor, single point]
Cc1oc(-c2ccccc2F)nc1CSCC(=O)NC1CCCC1	inconclusive: 89.1 µM [inhibitor, single point]
CCOc1cc(C(=O)Nc2ccc(-c3nc4cc(Cl)ccc4o3)cc2)cc(OCC)c1OCC	inactive
CCC(C)Nc1nc(-c2ccc3c(c2)NC(=O)CO3)cs1 (stereo not drawn)	inconclusive: 89.1 µM [inhibitor, single point]
CC(=O)c1cccc(-n2c(=O)c3c4c(sc3n(CC(=O)c3ccc(Cl)cc3)c2=O)CN(C(C)=O)CC4)c1	inactive
O=C(CSc1nc2ccccc2c(=O)n1CCCN1CCOCC1)NC12CC3CC(CC(C3)C1)C2	inconclusive: 79.4 µM [inhibitor, partial curve]
